# Laboratory results: the supplement of paper PMC12217912
# This is one part of the list. Sequences were assembled here from the parent chain. Values near 0.05 are background.
# B1: TEV protease; numbered along this chain (parent)
# chain: MGESLFKGPRDYNPISSSICHLTNESDGHTTSLYGIGFGPFIITNKHLFRRNNGTLVVQSLHGVFKVKDTTTLQQHLVDGRDMIIIRMPKDFPPFPQKLKFREPQREERICLVTTNFQTKSMSSMVSDTSCTFPSGDGIFWKHWIQTKDGQCGSPLVSTRDGFIVGIHSASNFTNTNNYFTSVPKNFMELLTNQEAQQWVSGWRLNADSVLWGGHKVFMVKPEEPFQPVKEATQL
# Variants of: B1
# Assay: raw area under fraction-flipped curve 0-4 h after induction (AUC4h, not background-subtracted), DNA-recorder readout of cleavage of the substrate (dimensionless); higher = more cleavage of the substrate by the protease variant
# Details: temperature: 34 °C; time window: 0-4 h after rhamnose induction
# Experimental: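 In vivo DNA recorder in E. coli TOP10(DE3) ΔrhaA at 34 °C. Each TEVp single-site mutant (parent TEVp 0) is paired with a single-site variant of the 7-mer TEVs (canonical ENLYFQ|S). The substrate sits between flexible linkers in a Bxb1-sfGFP-TEVs-SsrA fusion, so cleavage stabilises Bxb1 and speeds flipping of a recombination array, read by NGS. The value is the raw area under the fraction-flipped curve over 0-4 h after rhamnose induction (AUC4h), with ≥20 reads per time point. It is not background-subtracted; inactive controls average about 0.047.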
# 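Note: Bxb1 expression induced with 0.2% (w/v) L-rhamnose at OD600 near 0.5, cultures sampled hourly, flipped fraction per protease–substrate barcode pair counted by paired-end Illumina sequencing.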
variant,measurement,value
MGESLFKGPRDYNPISSSICHLTNESDGHTTSLYGIGFGPFIITNKHLFRRNNGTLVVQSLHGVFKVKDTTTLQQHLVDGRDMIIIRMPKDFPPFPQKLKFREPQREERICLVTTNFQTKSMSSMVSDTSCTFPSGDGIFWKHWIQTKDGQCGSPLVSTRDGFIVGIHSASNFTNTNNYFTSVPKNDMELLTNQEAQQWVSGWRLNADSVLWGGHKVFMVKPEEPFQPVKEATQL [F187D],area with substrate CNLYFQS,0.0454
same,area with substrate DNLYFQS,0.0687
same,area with substrate FNLYFQS,0.0515
same,area with substrate GNLYFQS,0.0474
same,area with substrate HNLYFQS,0.0545
same,area with substrate KNLYFQS,0.0609
same,area with substrate LNLYFQS,0.0538
same,area with substrate PNLYFQS,0.0498
same,area with substrate TNLYFQS,0.0549
same,area with substrate WNLYFQS,0.0567
same,area with substrate YNLYFQS,0.0575
MGESLFKGPRDYNPISSSICHLTNESDGHTTSLYGIGFGPFIITNKHLFRRNNGTLVVQSLHGVFKVKDTTTLQQHLVDGRDMIIIRMPKDFPWFPQKLKFREPQREERICLVTTNFQTKSMSSMVSDTSCTFPSGDGIFWKHWIQTKDGQCGSPLVSTRDGFIVGIHSASNFTNTNNYFTSVPKNFMELLTNQEAQQWVSGWRLNADSVLWGGHKVFMVKPEEPFQPVKEATQL [P94W],area with substrate CNLYFQS,0.0706
same,area with substrate DNLYFQS,0.082
same,area with substrate FNLYFQS,0.0712
same,area with substrate HNLYFQS,0.0724
same,area with substrate KNLYFQS,0.0682
same,area with substrate LNLYFQS,0.0617
same,area with substrate PNLYFQS,0.0575
same,area with substrate TNLYFQS,0.067
same,area with substrate WNLYFQS,0.0648
MGESLFKGPRDYNPISSSICHLTNESDGHTTSLYGIGFGPFIITNKHLFRRNNGTLVVQSLHGVFKVKDTTTLQQHLVDGRDMIIIRMPKDFPPFPQKLKFREPQREERICLVTTNFQTKSMSSMVSDTSCTFPSGDGIFWKHWIQTKDGQCGSPLVSTRDGFIVGIHSASNFTNTNNYFTSVPKNFMELLTNQEAQQWVSGWRLNADSVLWGGHKVFMVKPEEPFQPVKEATVL [Q234V],area with substrate CNLYFQS,0.0725
same,area with substrate DNLYFQS,0.0838
same,area with substrate GNLYFQS,0.0533
same,area with substrate HNLYFQS,0.104
same,area with substrate INLYFQS,0.065
same,area with substrate KNLYFQS,0.0569
same,area with substrate LNLYFQS,0.0524
same,area with substrate PNLYFQS,0.0708
same,area with substrate TNLYFQS,0.0724
same,area with substrate VNLYFQS,0.0886
same,area with substrate WNLYFQS,0.0557
same,area with substrate YNLYFQS,0.062
MGESLFKGPRDYNPISSSICHLTNESDGHTTSLYGIGFGPFIITNKHLFRRNNGTLVVQSLHGVFKVKDTTTLQQHLVDGRDMIIIRMPKDFPPFPQKLKFREPQSEERICLVTTNFQTKSMSSMVSDTSCTFPSGDGIFWKHWIQTKDGQCGSPLVSTRDGFIVGIHSASNFTNTNNYFTSVPKNFMELLTNQEAQQWVSGWRLNADSVLWGGHKVFMVKPEEPFQPVKEATQL [R106S],area with substrate CNLYFQS,0.0663
same,area with substrate DNLYFQS,0.0895
same,area with substrate FNLYFQS,0.0571
same,area with substrate GNLYFQS,0.0587
same,area with substrate HNLYFQS,0.0657
same,area with substrate INLYFQS,0.0706
same,area with substrate KNLYFQS,0.069
same,area with substrate NNLYFQS,0.0627
same,area with substrate PNLYFQS,0.0662
same,area with substrate SNLYFQS,0.0657
same,area with substrate VNLYFQS,0.0698
same,area with substrate WNLYFQS,0.0638
same,area with substrate YNLYFQS,0.0624
MGESLFKGPRDYNPISSSICHLTNESDGHTTSLYGIGFGPFIITNKHLFRRNNGTLVVQSLHGVFKVKDTTTLQQHLVDGRDMIIIRMPKDFPPFPQKLKFREPQREERICLVTTNFQTKSMSSMVSDTSCTFPSGDGIFWKHWIQTKDGQCGSPLVSTRDFFIVGIHSASNFTNTNNYFTSVPKNFMELLTNQEAQQWVSGWRLNADSVLWGGHKVFMVKPEEPFQPVKEATQL [G162F],area with substrate CNLYFQS,0.0715
same,area with substrate DNLYFQS,0.074
same,area with substrate FNLYFQS,0.0593
same,area with substrate GNLYFQS,0.0569
same,area with substrate HNLYFQS,0.0549
same,area with substrate INLYFQS,0.0548
same,area with substrate KNLYFQS,0.047
same,area with substrate LNLYFQS,0.0546
same,area with substrate MNLYFQS,0.0574
same,area with substrate NNLYFQS,0.0639
same,area with substrate PNLYFQS,0.0654
same,area with substrate QNLYFQS,0.0748
same,area with substrate SNLYFQS,0.0682
same,area with substrate TNLYFQS,0.0639
same,area with substrate VNLYFQS,0.0575
same,area with substrate WNLYFQS,0.0503
same,area with substrate YNLYFQS,0.0566
MGESLFKGPRDYNPISSSICHLTNESDGHTTSLYGIGFGPFIIINKHLFRRNNGTLVVQSLHGVFKVKDTTTLQQHLVDGRDMIIIRMPKDFPPFPQKLKFREPQREERICLVTTNFQTKSMSSMVSDTSCTFPSGDGIFWKHWIQTKDGQCGSPLVSTRDGFIVGIHSASNFTNTNNYFTSVPKNFMELLTNQEAQQWVSGWRLNADSVLWGGHKVFMVKPEEPFQPVKEATQL [T44I],area with substrate CNLYFQS,0.045
same,area with substrate DNLYFQS,0.0638
same,area with substrate FNLYFQS,0.0602
same,area with substrate GNLYFQS,0.0601
same,area with substrate HNLYFQS,0.0471
same,area with substrate INLYFQS,0.0564
same,area with substrate KNLYFQS,0.0571
same,area with substrate LNLYFQS,0.057
same,area with substrate MNLYFQS,0.0482
same,area with substrate NNLYFQS,0.0603
same,area with substrate PNLYFQS,0.0582
same,area with substrate QNLYFQS,0.0424
same,area with substrate TNLYFQS,0.0577
same,area with substrate VNLYFQS,0.0599
same,area with substrate WNLYFQS,0.052
MGESLFKGPRDYNPISSSICHLTNESDGHTTSLYGIGFGPFIITNKHLFRRNNGTLVVQSLHGVFKVKDTTTLQQHLVDGRDMIIIRMPKDFPPFPQKLKFREPQREERICLVTTNFQTKSMSSMVSDTSCTFPSGDGIFWKHWIQTKDGQCGSPLVSTRDGFIVGIHSASNFTNTNNYFTSVPKNFMELLTNQEAQQWVSGWRLNADSVLWGGHKVFMVKAEEPFQPVKEATQL [P222A],area with substrate CNLYFQS,0.0596
same,area with substrate DNLYFQS,0.0593
same,area with substrate HNLYFQS,0.0642
same,area with substrate MNLYFQS,0.0472
same,area with substrate PNLYFQS,0.08
same,area with substrate QNLYFQS,0.071
same,area with substrate SNLYFQS,0.0741
same,area with substrate TNLYFQS,0.052
same,area with substrate VNLYFQS,0.063
same,area with substrate WNLYFQS,0.0312
MGESLFKGPRDYNPISSSICHLTNESDGHTTSLYGIGFGPFIITNKHLFRRNNGTLVVQSLHGVFKVKDTTTLQQHLVDGRDMIIIRMPKDFPPFPQKLKFREPQREERICLVTTNFQTKSMSSMVSDTSCTFPSGDGIFWKHWIQTKDGQCGSPLVSTRDGFIVGIHSASNFTNTNNYFTSVPKNFMELLTNNEAQQWVSGWRLNADSVLWGGHKVFMVKPEEPFQPVKEATQL [Q194N],area with substrate CNLYFQS,0.0841
same,area with substrate DNLYFQS,0.093
same,area with substrate FNLYFQS,0.0608
same,area with substrate HNLYFQS,0.064
same,area with substrate INLYFQS,0.0508
same,area with substrate KNLYFQS,0.0496
same,area with substrate MNLYFQS,0.0425
same,area with substrate TNLYFQS,0.0575
same,area with substrate WNLYFQS,0.0525
same,area with substrate YNLYFQS,0.0337
MGESLFKGPRDYNPISSSICHLTNESDGHTTSLYGIGFGPFIITNKHLFRRNNGTLVVQSLHGVFKVKDTTTLQQHLVDGRDMIIIRMPKDFPPFPQKLKVREPQREERICLVTTNFQTKSMSSMVSDTSCTFPSGDGIFWKHWIQTKDGQCGSPLVSTRDGFIVGIHSASNFTNTNNYFTSVPKNFMELLTNQEAQQWVSGWRLNADSVLWGGHKVFMVKPEEPFQPVKEATQL [F101V],area with substrate CNLYFQS,0.0328
same,area with substrate DNLYFQS,0.0461
same,area with substrate HNLYFQS,0.0505
same,area with substrate INLYFQS,0.0549
same,area with substrate MNLYFQS,0.0824
same,area with substrate TNLYFQS,0.0512
MGESLFKGPRDYNPISSSICHLTNESDGHTTSLYGIGFGPFIITNKHLFRRNNGTLVVQSLHGVFKVKDTTTLQQHLVDGRDMIIIRMPKDFPPFPQKLKFREPQREERICLVTTNFQTKSMSSMVSDTSCTFPSGDGIFWKHWIQTKDGQCGSPLVSTRDGFIVGIHSASNFTNTNNYFTSWPKNFMELLTNQEAQQWVSGWRLNADSVLWGGHKVFMVKPEEPFQPVKEATQL [V183W],area with substrate CNLYFQS,0.0567
same,area with substrate DNLYFQS,0.0765
same,area with substrate FNLYFQS,0.0546
same,area with substrate GNLYFQS,0.0529
same,area with substrate HNLYFQS,0.0607
same,area with substrate INLYFQS,0.0517
same,area with substrate KNLYFQS,0.0556
same,area with substrate MNLYFQS,0.0533
same,area with substrate NNLYFQS,0.0587
same,area with substrate PNLYFQS,0.0574
same,area with substrate QNLYFQS,0.0378
same,area with substrate SNLYFQS,0.0593
same,area with substrate TNLYFQS,0.0572
same,area with substrate WNLYFQS,0.0695
same,area with substrate YNLYFQS,0.0544
